# Source: patent publication US11685745B2, “Substituted benzoxazole and benzofuran compounds as PDE7 inhibitors” (Dart NeuroScience, LLC, priority 2017, dated 2023)
# Biological target: N-terminal truncated recombinant human PDE7B enzyme (Homo sapiens (Human), UniProt Q9NP56)
# Assay: biochemical
row,SMILES,IC50 [nM]
1,"CN(C)C1CCCN(C(=O)c2cc3cc(Cl)c4c(c3o2)C2(CCCCC2)NC(=O)N4)C1 (stereo not shown) [Example 314, 5′-Chloro-2′-[3-(dimethylamino)piperidine-1-carbonyl]-7′,8′-dihydro-6′H-spiro[cyclohexane-1,9′-furo[2,3-f]quinazoline]-7′-one]",100 to 1000
2,"O=C1Nc2c(Cl)cc3cc(C(=O)N4CCN(C5CCCC5)CC4)oc3c2C2(CCCCC2)N1 [Example 459, 5′-Chloro-2′-(4-cyclopentylpiperazine-1-carbonyl)-7′,8′-dihydro-6′H-spiro[cyclohexane-1,9′-furo[2,3-f]quinazoline]-7′-one]",100 to 1000
3,"CN1CCN(Cc2nc3cc(Cl)c4c(c3o2)C2(CCC(F)(F)CC2)NC(=O)N4)CC1 [Example 10, 5′-Chloro-4,4-difluoro-2′-((4-methylpiperazin-1-yl)methyl)-6′H-spiro[cyclohexane-1,9′-oxazolo[5,4-f]quinazolin]-7′(8′H)-one]",100 to 1000
4,"CC(C)(CCO)NCc1cc2cc(Cl)c3c(c2o1)C1(CCCCC1)NC(=O)N3 [Example 516, 5′-Chloro-2′-{[(4-hydroxy-2-methylbutan-2-yl)amino]methyl}-7′,8′-dihydro-6′H-spiro[cyclohexane-1,9′-furo[2,3-f]quinazoline]-7′-one]",100 to 1000
5,"CN(CCc1ccccn1)Cc1cc2cc(Cl)c3c(c2o1)C1(CCCCC1)NC(=O)N3 [Example 543, 5′-Chloro-2′-({methyl[2-(pyridin-2-yl)ethyl]amino}methyl)-7′,8′-dihydro-6′H-spiro[cyclohexane-1,9′-furo[2,3-f]quinazoline]-7′-one]",10 to 100
6,"CCOC(=O)CN(C)Cc1cc2cc(Cl)c3c(c2o1)C1(CCCCC1)NC(=O)N3 [Example 567, Ethyl 2-({5′-chloro-7′-oxo-7′,8′-dihydro-6′H-spiro[cyclohexane-1,9′-furo[2,3-f]quinazoline]-2′-ylmethyl}(methyl)amino)acetate]",100 to 1000
7,"O=C1Nc2c(Cl)cc3cc(C(=O)N4C[C@H]5C[C@H]5C4)oc3c2C2(CCCCC2)N1 [Example 322, 2′-[(1R,5S)-3-azabicyclo[3.1.0]hexane-3-carbonyl]-5′-chloro-7′,8′-dihydro-6′H-spiro[cyclohexane-1,9′-furo[2,3-f]quinazoline]-7′-one]",10 to 100
8,"CC(C)CC1(CO)CCCN(C(=O)c2cc3cc(Cl)c4c(c3o2)C2(CCCCC2)NC(=O)N4)C1 (stereo not shown) [Example 278, 5′-Chloro-2′-[3-(hydroxymethyl)-3-(2-methylpropyl)piperidine-1-carbonyl]-7′,8′-dihydro-6′H-spiro[cyclohexane-1,9′-furo[2,3-f]quinazoline]-7′-one]",10 to 100
9,"O=C1Nc2c(Cl)cc3nc(C(=O)N4CCN5CCC[C@H]5C4)oc3c2C2(CCC(F)(F)CC2)N1 [Example 221, 2-[(8aS)-Octahydropyrrolo[1,2-a]piperazine-2-carbonyl]-5-chloro-4′,4′-difluoro-7,8-dihydro-6H-spiro[[1,3]oxazolo[5,4-f]quinazoline-9,1′-cyclohexane]-7-one]",100 to 1000
10,"CCO[C@@H]1CCN(C(=O)c2nc3cc(Cl)c4c(c3o2)C2(CCCCC2)NC(=O)N4)C1 [Example 187, 5-Chloro-2-[(3R)-3-ethoxypyrrolidine-1-carbonyl]-7,8-dihydro-6H-spiro[[1,3]oxazolo[5,4-f]quinazoline-9,1′-cyclohexane]-7-one]",10 to 100
11,"CCN(CCO)C(=O)c1cc2cc(Cl)c3c(c2o1)C1(CCCCC1)NC(=O)N3 [Example 273, 5′-Chloro-N-ethyl-N-(2-hydroxyethyl)-7′-oxo-7′,8′-dihydro-6′H-spiro[cyclohexane-1,9′-furo[2,3-f]quinazoline]-2′-carboxamide]",10 to 100
12,"CC(C)n1cnnc1CN(C)Cc1cc2cc(Cl)c3c(c2o1)C1(CCCCC1)NC(=O)N3 [Example 30, 5′-Chloro-2′-((((4-isopropyl-4H-1,2,4-triazol-3-yl)methyl)(methyl)amino)methyl)-6′H-spiro[cyclohexane-1,9′-furo[2,3-f]quinazolin]-7′(8′H)-one]",10 to 100
13,"CCc1nc2cc(Cl)c3c(c2o1)C1(CCCCC1)NC(=O)N3 [Example 15, 5′-Chloro-2′-ethyl-6′H-spiro[cyclohexane-1,9′-oxazolo[5,4-f]quinazolin]-7′(8′H)-one]",10 to 100
14,"COC(=O)c1nc2cc(Cl)c3c(c2o1)C1(CCCCC1)NC(=O)N3 [Example 1, Methyl 5′-chloro-7′-oxo-7′,8′-dihydro-6′H-spiro[cyclohexane-1,9′-oxazolo[5,4-f]quinazoline]-2′-carboxylate]",100 to 1000
15,"COC[C@@H]1CCN(Cc2nc3cc(Cl)c4c(c3o2)C2(CCCCC2)NC(=O)N4)C1 [Example 136, 5-Chloro-2-{[(3R)-3-(methoxymethyl)pyrrolidin-1-yl]methyl}-7,8-dihydro-6H-spiro[[1,3]oxazolo[5,4-f]quinazoline-9,1′-cyclohexane]-7-one]",10 to 100
16,"CCCN(CCO)C(=O)c1cc2cc(Cl)c3c(c2o1)C1(CCCCC1)NC(=O)N3 [Example 258, 5′-Chloro-N-(2-hydroxyethyl)-7′-oxo-N-propyl-7′,8′-dihydro-6′H-spiro[cyclohexane-1,9′-furo[2,3-f]quinazoline]-2′-carboxamide]",10 to 100

row,SMILES,IC50 [nM]
1,"O=C1Nc2c(Cl)cc3cc(CN(CCO)Cc4ccccc4)oc3c2C2(CCCCC2)N1 [Example 483, 2′-{[Benzyl(2-hydroxyethyl)amino]methyl}-5′-chloro-7′,8′-dihydro-6′H-spiro[cyclohexane-1,9′-furo[2,3-f]quinazoline]-7′-one]",100 to 1000
2,"O=C1Nc2c(Cl)cc3cc(CNCc4ccc(N5CCOCC5)nc4)oc3c2C2(CCCCC2)N1 [Example 549, 5′-Chloro-2′-[({[6-(morpholin-4-yl)pyridin-3-yl]methyl}amino)methyl]-7′,8′-dihydro-6′H-spiro[cyclohexane-1,9′-furo[2,3-f]quinazoline]-7′-one]",100 to 1000
3,"O=C1Nc2c(Cl)cc3nc(CN[C@H]4CCOC4)oc3c2C2(CCC(F)(F)CC2)N1 [Example 228, 5-Chloro-4′,4′-difluoro-2-({[(3S)-oxolan-3-yl]amino}methyl)-7,8-dihydro-6H-spiro[[1,3]oxazolo[5,4-f]quinazoline-9,1′-cyclohexane]-7-one]",100 to 1000
4,"CNCCN(C)C(=O)c1nc2cc(Cl)c3c(c2o1)C1(CCCCC1)NC(=O)N3 [Example 192, 5-Chloro-N-methyl-N-[2-(methylamino)ethyl]-7-oxo-7,8-dihydro-6H-spiro[[1,3]oxazolo[5,4-f]quinazoline-9,1′-cyclohexane]-2-carboxamide]",100 to 1000
5,"C[C@H](NCc1nc2cc(Cl)c3c(c2o1)C1(CCCCC1)NC(=O)N3)C(=O)N(C)C [Example 142, (2S)-2-({5-Chloro-7-oxo-7,8-dihydro-6H-spiro[[1,3]oxazolo[5,4-f]quinazoline-9,1′-cyclohexane]-2-ylmethyl}amino)-N,N-dimethylpropanamide]",100 to 1000
6,"COC1CCCN(C(=O)c2cc3cc(Cl)c4c(c3o2)C2(CCCCC2)NC(=O)N4)C1 (stereo not shown) [Example 309, 5′-Chloro-2′-(3-methoxypiperidine-1-carbonyl)-7′,8′-dihydro-6′H-spiro[cyclohexane-1,9′-furo[2,3-f]quinazoline]-7′-one]",10 to 100
7,"CCOc1ccc2c(n1)OCCN(C(=O)c1cc3cc(Cl)c4c(c3o1)C1(CCCCC1)NC(=O)N4)C2 [Example 394, 5′-Chloro-2′-{8-ethoxy-2H,3H,4H,5H-pyrido[3,2-f][1,4]oxazepine-4-carbonyl}-7′,8′-dihydro-6′H-spiro[cyclohexane-1,9′-furo[2,3-f]quinazoline]-7′-one]",100 to 1000
8,"O=C1Nc2c(Cl)cc3nc(C(=O)N4CCN(CC(F)F)CC4)oc3c2C2(CCCCC2)N1 [Example 209, 5-Chloro-2-[4-(2,2-difluoroethyl)piperazine-1-carbonyl]-7,8-dihydro-6H-spiro[[1,3]oxazolo[5,4-f]quinazoline-9,1′-cyclohexane]-7-one]",10 to 100
9,"O=C1Nc2c(Cl)cc3cc(CN4CCC(O)(c5cccs5)CC4)oc3c2C2(CCCCC2)N1 [Example 512, 5′-Chloro-2′-{[4-hydroxy-4-(thiophen-2-yl)piperidin-1-yl]methyl}-7′,8′-dihydro-6′H-spiro[cyclohexane-1,9′-furo[2,3-f]quinazoline]-7′-one]",100 to 1000
10,"COC(=O)[C@@H]1CCCN(Cc2nc3cc(Cl)c4c(c3o2)C2(CCCCC2)NC(=O)N4)C1 [Example 137, Methyl (3R)-1-{5-chloro-7-oxo-7,8-dihydro-6H-spiro[[1,3]oxazolo[5,4-f]quinazoline-9,1′-cyclohexane]-2-ylmethyl}piperidine-3-carboxylate]",10 to 100
11,"CC(C)N(Cc1nccn1C)C(=O)c1cc2cc(Cl)c3c(c2o1)C1(CCCCC1)NC(=O)N3 [Example 304, 5′-Chloro-N-[(1-methyl-1H-imidazol-2-yl)methyl]-7′-oxo-N-(propan-2-yl)-7′,8′-dihydro-6′H-spiro[cyclohexane-1,9′-furo[2,3-f]quinazoline]-2′-carboxamide]",10 to 100
12,"O=C1Nc2c(Cl)cc3nc(CNC4CC4)oc3c2C2(CCCCC2)N1 [Example 36, 5-Chloro-2-[(cyclopropylamino)methyl]-7,8-dihydro-6H-spiro[[1,3]oxazolo[5,4-f]quinazoline-9,1′-cyclohexane]-7-one]",10 to 100
13,"CCN(C(=O)c1cc2cc(Cl)c3c(c2o1)C1(CCCCC1)NC(=O)N3)C1CCOC(C)(C)C1 (stereo not shown) [Example 287, 5′-Chloro-N-(2,2-dimethyloxan-4-yl)-N-ethyl-7′-oxo-7′,8′-dihydro-6′H-spiro[cyclohexane-1,9′-furo[2,3-f]quinazoline]-2′-carboxamide]",10 to 100
14,"O=C1Nc2c(Cl)cc3cc(CNC4COC4)oc3c2C2(CCCCC2)N1 [Example 583, 5′-Chloro-2′-{[(oxetan-3-yl)amino]methyl}-7′,8′-dihydro-6′H-spiro[cyclohexane-1,9′-furo[2,3-f]quinazoline]-7′-one]",10 to 100
15,"CO[C@@H]1CCN(C(=O)c2nc3cc(Cl)c4c(c3o2)C2(CCCCC2)NC(=O)N4)C1 [Example 206, 5-Chloro-2-[(3R)-3-methoxypyrrolidine-1-carbonyl]-7,8-dihydro-6H-spiro[[1,3]oxazolo[5,4-f]quinazoline-9,1′-cyclohexane]-7-one]",10 to 100
